From patent publication US8975247B2, “Methods and compositions of treating a flaviviridae family viral infection” (priority 2009, dated 2015) come the findings set out here.

The structures appear in SMILES notation. Where only a bound is given, the exact number is not on record here.

Data set [1] relates to HCV genotype 2a infectious clone. The experiment in a line: HCV genotype 2a infectious clone assay (Renilla luciferase). Type of data set: cell-based. The conditions noted are these: Hepatitis C virus; for activity at 5 µM: read-out: 2a % activity @ 5 μM, % replication activity of control remaining at 5 μM test compound.
For another data set, the system named is Huh7.5 cells. It counts as cell-based. As to conditions: human, 3 days.

The term EC50 denotes the concentration at which the effect is half-maximal.

Consider `CC(=O)N1CCCC1CCc1nc2cc(C)c(C)cc2n1Cc1ccc(Cl)cc1` (stereo not shown) [EBP479], for which the activity at 5 µM in data set [1] amounted to 82%. In the data set on Huh7.5 cells, the “2a Cell Viability @ 5 μM” value is reported as 91, 91% and the “2a Cell Viability @ 10 μM” value is on record as 91, 91%. Consider `COc1ccc(Cn2c(C)nc3c(N)c(C)c(C)cc32)cc1` [EBP104], for which the activity at 5 µM in data set [1] was 72%. For the same compound, in the data set on Huh7.5 cells, the “2a Cell Viability @ 5 μM” value worked out at 98% and the “2a Cell Viability @ 10 μM” value worked out at 96%. Taken in the same sequence, the figures for `Cc1cc2nc(/C=C/c3ccsc3)n(Cc3ccc(Cl)cc3)c2cc1C` [EBP476] were 60%, 95% and 76%. As to `Oc1ccc2nc(CN3CCCC3)n(Cc3ccc(Cl)cc3)c2c1` [EBP483], the activity at 5 µM in data set [1] was found to be 75%. Also, in the data set on Huh7.5 cells, the “2a Cell Viability @ 5 μM” value stood at 90% and the “2a Cell Viability @ 10 μM” value is recorded as 80%. As to `Cc1cc2nc(/C=C/C3CCCCC3)n(Cc3ccc(Cl)cc3)c2cc1C` [EBP321], the activity at 5 µM in data set [1] came out at 56%. Consider `Cc1cc2nc(CN3CCC[C@H]3C)n(Cc3ccc(Cl)cc3)c2cc1C` [EBP273], for which, in the data set with Huh7.5 cells, the “2a Cell Viability @ 5 μM” value is 95% and the “2a Cell Viability @ 10 μM” value was determined as 82%. For `Oc1cc2ncn(Cc3ccc(Cl)cc3)c2cc1O` [EBP215] the same measures were 97% and 95%. On to `Clc1ccc(CCn2cnc3ccccc32)cc1` [EBP228], for which, in data set [1], the activity at 5 µM is 81%.

In the case of `O=C(O)c1cccc(Cn2c(CN3CCCC3)nc3ccccc32)c1` [EBP155], the activity at 5 µM in data set [1] worked out at 84%. Consider `Cc1c[nH]c(/C=C/c2nc3cc(C)c(C)cc3n2Cc2ccc(Cl)cc2)n1` [EBP362], for which the activity at 5 µM in data set [1] amounted to 71%. The same measure, in the same setting: to `Cc1cc2nc(COC3CCCCC3)n(Cc3ccc(Cl)cc3)c2cc1C` [EBP324] belongs 68%. On to `Cc1ccc2nc(CN3CCC[C@@H]3C)n(Cc3ccc(Cl)cc3)c2c1` [EBP490], for which the activity at 5 µM in data set [1] was below 50%. Moreover, in data set [1] (read-out: 2a EC50 (inferred from <50% replication activity at 5 μM)), the EC50 was below 5 µM.

Take `COc1ccc2c(c1)nc(CN1CCCC1)n2Cc1ccc(Cl)cc1` [EBP365]: in data set [1], the activity at 5 µM is 87%. `Cc1cc2c(ncn2Cc2ccc(Cl)cc2)c(NC(=O)c2ccccc2)c1C` [EBP242]: the activity at 5 µM in data set [1] turned out to be 86%. In the case of `Cc1cc2nc(CN3CCC[C@@H]3CO)n(Cc3ccc(Cl)cc3)c2cc1C` [EBP408], the activity at 5 µM in data set [1] came to 90%. The same measure, in the same setting: to `O=CCCCNCc1nc2ccccc2n1Cc1ccc(Cl)cc1` [EBP499] belongs 83%; to `Cc1cc2nc(CN3CCCC3C(N)=O)n(Cc3ccc(Cl)cc3)c2cc1C` (stereo not shown) [EBP234], 78%.

With `Cc1cc2nc(CCC3CCCCC3)n(Cc3ccc(Cl)cc3)c2cc1C` [EBP363], the activity at 5 µM in data set [1] is 76%. Still for that read-out and setting: to `OCc1nc2ccccc2n1Cc1ccc(Br)cc1` [EBP059] belongs 50%; to `Cc1cc2nc(CCC(C)C)n(Cc3ccc(Cl)cc3)c2cc1C` [EBP364], 68%. Same read-out and setting: the figure for `Oc1ccc2c(c1)nc(CN1CCCC1)n2Cc1ccc(Cl)cc1` [EBP366] is 89%; for `Cc1cc2c(ncn2C)c(NS(C)(=O)=O)c1C` [EBP171] it is 80%.

`Clc1ccc(Cn2c(C[N+]3(Cc4ccc(Cl)cc4)CCCC3)nc3ccccc32)cc1` [EBP310]: in data set [1], the activity at 5 µM was above 10%.

On to `Clc1ccc(Cn2c(CN3CCCCCC3)nc3ccccc32)cc1` [EBP165], for which the activity at 5 µM in data set [1] turned out to be 69%.

For `C[N+]1(Cc2nc3ccccc3n2Cc2ccc(Cl)cc2)CCCC1` [EBP311], the activity at 5 µM in data set [1] was determined as 83%.

Turning to `CC(C)c1ccc(Cn2c(CN3CCCC3)nc3ccccc32)cc1` [EBP198], the activity at 5 µM in data set [1] is 79%. The same measure, in the same setting: to `Cc1cc2nc(COC(C)C)n(Cc3ccc(Cl)cc3)c2cc1C` [EBP326] belongs 78%; to `COC(=O)c1ccc(Cn2cnc3ccccc32)cc1` [EBP062], 59%. The same measure, in the same setting: the figure for `CCCN(CCC)Cc1nc2ccccc2n1Cc1ccc(Cl)cc1` [EBP137] is 69%.
